In PMC6919601, “Identification of Plasmodium dipeptidyl aminopeptidase allosteric inhibitors by high throughput screening” (PLoS ONE, 2019):
The whole screen tested about 110,000 compounds, of which about 230 (0.21%) showed an effect of 50% or more. The list shows a part of the results.

Each molecule was assayed against DPAP1 (Plasmodium falciparum, UniProt Q8IIJ9) (assay: primary screen, percent inhibition; read by cleavage of a fluorogenic dipeptide substrate; higher = more effect of the substance).
Parameters: species or system P. falciparum D10 trophozoite lysates; single well
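Further: 30 min substrate incubation versus DMSO and 10 µM JCP410 controls.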

DPAP1, sequence (Q8IIJ9 whole entry, looked up): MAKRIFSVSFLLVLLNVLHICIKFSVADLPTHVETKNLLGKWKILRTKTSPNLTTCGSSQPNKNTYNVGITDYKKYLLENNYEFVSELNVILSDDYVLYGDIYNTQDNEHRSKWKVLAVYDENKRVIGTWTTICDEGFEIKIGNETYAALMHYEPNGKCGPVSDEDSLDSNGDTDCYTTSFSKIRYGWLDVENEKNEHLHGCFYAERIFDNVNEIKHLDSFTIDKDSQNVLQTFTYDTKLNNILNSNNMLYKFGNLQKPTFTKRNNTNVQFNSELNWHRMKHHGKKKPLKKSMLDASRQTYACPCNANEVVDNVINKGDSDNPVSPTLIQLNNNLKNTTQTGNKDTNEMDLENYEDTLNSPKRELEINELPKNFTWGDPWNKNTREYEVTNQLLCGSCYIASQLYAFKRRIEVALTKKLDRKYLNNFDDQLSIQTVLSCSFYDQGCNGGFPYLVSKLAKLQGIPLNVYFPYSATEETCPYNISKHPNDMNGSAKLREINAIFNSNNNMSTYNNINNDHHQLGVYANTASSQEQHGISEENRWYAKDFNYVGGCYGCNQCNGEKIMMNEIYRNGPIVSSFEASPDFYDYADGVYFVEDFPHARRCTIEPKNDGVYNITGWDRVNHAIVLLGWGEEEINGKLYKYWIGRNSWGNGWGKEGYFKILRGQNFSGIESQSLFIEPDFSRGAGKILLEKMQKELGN

Row | Structure (SMILES) | % Inhibition @ 10 uM
1 | Cc1cc(Cl)ccc1OCC(=O)Nc1ccc(S(N)(=O)=O)cc1 | 0.0504%
2 | COc1ccc(-c2c(C)nn3c(O)cc(Cc4ccccc4)nc23)cc1OC | -4.78%
3 | OC1O[C@@H](COCc2ccccc2)[C@H](OCc2ccccc2)[C@@H](OCc2ccccc2)[C@H]1O (stereo partly shown) | 2.17%
4 | c1csc(CN2CCN(Cc3ccc4c(c3)OCO4)CC2)c1 | -1.07%
5 | Brc1cccc(CNCc2ccc3c(c2)OCO3)c1 | 0.214%
6 | Cc1nc2cccc(C(=O)NCc3ccccc3)c2o1 | 1.03%
7 | COCCNC(=O)CN1C(=O)CSc2c1c(C)nn2-c1ccccc1 | -1.93%
8 | O=C(Nc1ncc(-c2ccccc2)s1)c1ccncc1 | -5.28%
9 | COc1ccc(CCn2c(=O)c3cccnc3n(CC(N)=O)c2=O)cc1OC | -5.27%
10 | Fc1ccccc1OCCN1CCOCC1 | 3.82%
11 | COc1ccc(C(=O)C2CC=CCN2Cc2ccccc2)cc1OC (stereo not shown) | 2.48%
12 | CC(=O)Nc1ccc(S(=O)(=O)Nc2ccc(C(C)=O)cc2)cc1 | -5.1%
13 | COc1ccc(CNC(=O)c2ccc(C)o2)cc1 | -1.63%
14 | COc1ccc(C(=O)Nc2nnc(C(C)(C)C)s2)cc1 | -4.87%
15 | O=C(Cc1ccc2c(c1)OCO2)c1cc2c(cc1Br)OCO2 | -3.25%
16 | Cc1ccc2c(c1)-c1onc(C(=O)NCCC(C)C)c1CO2 | 1.14%
17 | O=C(NC1CCCCCC1)c1ccc(CS(=O)(=O)c2cccc(C(F)(F)F)c2)o1 | -3.09%
18 | CC(C)CC1=NN2C(=N)/C(=C/c3ccc(C(C)C)cc3)C(=O)N=C2S1 | 0.484%
19 | O=C1NC(=O)N(c2ccccc2)C(=O)/C1=C\Nc1ccccc1O | -0.996%
20 | Fc1ccc(-c2cc(-c3ccccc3)nc(N3N=C(c4ccccc4)CC3c3ccccc3)n2)cc1 (stereo not shown) | 5.03%
21 | CC(C)OCCCNC(=O)c1cc2c(s1)-c1ccccc1S(=O)(=O)C2 | 1.22%
22 | CCCCOc1ccc(C2SCC(=O)Nc3c2c(O)nn3C(C)CCC)cc1 (stereo not shown) | -2.21%
23 | COc1cccc(OC)c1C(=O)N1CCN(C(=O)c2cccnc2)CC1 | 6.12%
24 | COCCNC(=O)COc1ccc(C(C)(C)C)cc1Br | -2.76%
25 | C#CCN1C(=O)S/C(=C\C=C\c2ccc(N(C)C)cc2)C1=O | -3.33%
26 | O=C(Cc1noc2ccccc12)NCCN1CCN(Cc2ccccc2)CC1 | 3.71%

Row | Structure (SMILES) | % Inhibition @ 10 uM
27 | C=CCNC(=O)CN(Cc1ccc(C)cc1)S(=O)(=O)c1ccc(C)cc1 | 3.79%
28 | CCOC(=O)c1c(C)nc2cc(C)ccn12 | -3.35%
29 | COc1ccc(CCC(C)NCCCN2CCOCC2)cc1 (stereo not shown) | -2.03%
30 | CN(CC(=O)N1CCN(c2ccccn2)CC1)S(=O)(=O)c1cccc2nsnc12 | -1.43%
31 | Clc1ccc(CCNCc2ccccn2)c(Cl)c1 | 0.177%
32 | O=C(Nc1ccc(F)cc1)c1ccc(Cl)c([N+](=O)[O-])c1 | 1.96%
33 | CCOC(=O)N1CCN(C(=O)Cc2c(C(=O)O)[nH]c3ccccc23)CC1 | 4.14%
34 | Cc1ccc(/N=C2\S/C(=C\c3cn(CC(=O)O)c4ccccc34)C(=O)N2C)cc1 | 21%
35 | CCOc1ccc(CCNC(=O)CCn2c(=O)c3cccn3c3cccnc32)cc1OCC | -3.91%
36 | Cc1c(Cl)cccc1N(CC(=O)Nc1ccc(Cl)cc1)S(C)(=O)=O | -5.15%
37 | CNC(=O)CC(NS(=O)(=O)c1ccc(Br)cc1)c1ccc(OC)cc1 (stereo not shown) | 1.62%
38 | Cc1nc2cc(-c3ccccc3)nn2c(C)c1CCC(=O)NCCC(C)C | 2.93%
39 | Cc1cc(O)n2nc(N3C(=O)c4ccc(C(=O)O)cc4C3=O)nc2n1 | -3.08%
40 | O=S(=O)(c1ccccc1)c1nnn2c1nc(NCc1ccc3c(c1)OCO3)c1sccc12 | -2.85%
41 | COc1ccc(C(CC(=O)O)NC(=O)OC(C)(C)C)cc1 (stereo not shown) | -5.14%
42 | CCOC(=O)N1CC(C)N(C(=O)OCC)CC1C (stereo not shown) | -5%
43 | O=S(=O)(c1ccc(Oc2ccc(S(=O)(=O)N3CCCC3)cc2)cc1)N1CCCC1 | -2.17%
44 | CC(C)(C)C(=O)NCCN1CCN(C(=O)C(C)(C)C)CC1 | 1.65%
45 | Brc1ccc(-c2noc(C3CCCCC3)n2)cc1 | 3.9%
46 | Cc1sc(NC(=O)c2csc3ccccc23)c(C(N)=O)c1-c1ccccc1 | 3.86%
47 | O=c1sc2cc(Br)ccc2n1Cc1ccccc1 | -4.15%
48 | CCCNC(=O)CN(Cc1c(Cl)cccc1Cl)S(=O)(=O)c1ccc(Cl)cc1 | -2.85%
49 | CCn1c2ccccc2c2nnc(N3CCC(C)CC3)nc21 | -3.1%
50 | COc1ccc(-c2cc(C(F)(F)F)n3nc(C(=O)N4CCc5ccccc5C4)cc3n2)cc1 | -4.84%
51 | Cc1ccc(-c2nc(C(=O)N3CCCCC3c3cccnc3)c3n2CCCCC3)cc1 (stereo not shown) | 5.13%
52 | O=C(NC1CCN(Cc2ccccc2)CC1)c1cc(-c2ccc(Cl)cc2)n[nH]1 | -3.12%

Row | Structure (SMILES) | % Inhibition @ 10 uM
53 | O=C(c1ccccc1S(=O)(=O)NCc1ccccc1)N1CCOCC1 | -1.47%
54 | Nc1nc(O)c(Br)c(NCc2ccccc2)n1 | 0.565%
55 | CCOC(=O)c1c(NC(C)=O)no[n+]1[O-] | 2.09%
56 | O=C(NCc1ccc(F)cc1Cl)C1CCCN(c2nc3ccccc3o2)C1 (stereo not shown) | -6.88%
57 | Cc1ccc(O)c(-n2cc3c(c2-c2ccccc2Cl)c(=O)n(C)c(=O)n3C)c1 | 0.366%
58 | COc1ccc(Br)cc1CNC(=O)Cn1c(-c2ccccc2)cc(C(C)=O)c1C | 3.29%
59 | CCC1CCCCN1C(=O)C1CC(c2ccc(F)cc2)=NO1 (stereo not shown) | 2.85%
60 | c1ccc2oc(-c3ccnc4ccccc34)nc2c1 | -4.24%
61 | Cc1ccc(NC(=O)COc2ccccc2C)cc1F | -2.28%
62 | CCOc1ccc2c(c1)ncn2Cc1ccccc1 | 3.05%
63 | CC(=O)c1cc(-c2ccc(F)cc2)n(CCC(=O)Nc2cc(C)[nH]n2)c1C | -7.35%
64 | CCCn1c2ccccc2c2cnn(CC(=O)O)c(=O)c21 | -1.51%
65 | O=C(Nc1ccc(F)cc1)c1ccccc1NC(=O)C1CCCCC1C(=O)O (stereo not shown) | -4.63%
66 | OC1=C2C(=Nc3ccccc3NC2c2cccnc2)CC(c2ccc(Cl)cc2)C1 (stereo not shown) | -0.958%
67 | CCn1c(-c2ccccc2)cs/c1=N\c1cccc(C)c1 | -14.4%
68 | Cc1nc(-c2ccccc2)c(CC(=O)O)s1 | -1.72%
69 | CC1(C)CC(=O)C2=C(C1)NC(=O)CC2c1ccc(C(C)(C)C)cc1 (stereo not shown) | -3.21%
70 | CSc1nc(-c2ccccc2)nc(S)c1C(C)=O | 44.4%
71 | CCCCCCOc1cccc(N2C(=O)CC3CS(=O)(=O)CC32)c1 (stereo not shown) | 1.35%
72 | CC1(C)CC(=O)C2=C(C1)c1c(ccc3ccccc13)NC2c1ccc(Cl)cc1Cl (stereo not shown) | -12%
73 | Cc1cccc(-n2c(Cc3cccn3C)nnc2SCC(=O)N2CCOCC2)c1C | 3.75%
74 | Cc1[nH]nc2c1C(c1cccc(OCc3ccccc3)c1)C(C#N)=C(N)O2 (stereo not shown) | -0.981%
75 | CC(C)Oc1ccc(CNC(=O)Cc2cccs2)cc1 | -1.7%
76 | C1=C(/C=C/c2ccc3c(c2)OCO3)CCN(Cc2ccccc2)C1 | -7.52%
77 | COc1cc(C(=O)NCCC(C)C)cc(OC)c1OC | 0.843%
78 | CC1CCc2c(sc(NC(=O)C3CC3)c2C#N)C1 (stereo not shown) | -1.44%

Row | Structure (SMILES) | % Inhibition @ 10 uM
79 | CCC(C)c1ccccc1OCC(=O)Nc1ccc(S(N)(=O)=O)cc1 (stereo not shown) | -1.44%
80 | CN(Cc1ccccc1)C(=O)COc1ccc(C(C)(C)C)cc1 | 0.997%
81 | CCOc1ccccc1C1C2=C(O)CC(c3ccc(Cl)cc3)CC2=NC(C)=C1C(=O)OCCOC (stereo not shown) | -2.98%
82 | CCCCNCC(=O)Nc1sc(C)c(C)c1C(=O)OCC | -0.771%
83 | c1coc(CNc2ncnc3c2sc2nc(N4CCOCC4)c4c(c23)CCCC4)c1 | -0.386%
84 | COc1cc(C(F)(F)F)ccc1C(=O)NCCc1ccco1 | 3.47%
85 | COc1ccc(S(=O)(=O)N2CCCC(C(=O)N3CCc4ccccc4C3)C2)cc1 (stereo not shown) | -3.13%
86 | Cc1ccc(SCCC(=O)N2CCN(c3ccccc3)CC2)cc1 | -3.09%
87 | O=C(CO)n1c2ccccc2c2ccccc21 | -3.44%
88 | CCN(CC)CCN1C(=O)c2ccccc2NC1c1cccc(F)c1 (stereo not shown) | 0.24%
89 | OCCN1CCN(c2ncnc3sc4c(c23)CCCC4)CC1 | -4.01%
90 | O=C(c1cnc2ccccc2n1)c1ccco1 | 1.05%
91 | CCOc1cc(C2C3=C(O)CCCC3=NC3=C2C(=O)CCC3)ccc1OCc1ccccc1 (stereo not shown) | -4.49%
92 | COc1ccc(CCNS(=O)(=O)c2cccc(C)c2)cc1OC | 3.9%
93 | N#CC1CCN(C(=O)c2ccc3c(Cl)c4c(nc3c2)CCCC4)CC1 | 1.24%
94 | CCOc1ccc(NC(=O)Nc2cccc(Cl)c2)cc1 | 0.317%
95 | O=S(=O)(Cc1ccccc1)N1CCn2c(nc3ccccc32)C1 | -4.74%
96 | Cc1ccc(CNc2nc3c(S(=O)(=O)c4cccc(Cl)c4)nnn3c3ccsc23)cc1 | 5.6%
97 | COc1ccc(-n2c(=S)[nH]c3sc4c(c3c2=O)CCC4)cc1 | 84.1%
98 | CC(=O)Nc1ccc2[nH]c(-c3ccccc3)nc2c1 | -0.828%
99 | CC(=O)Nc1ccc(NC(=O)c2ccccc2)cc1C | -2.82%
100 | Cc1ccccc1OC(C)C(=O)Nc1cccc(O)c1 (stereo not shown) | 2.93%
101 | CCOC(=O)C1=C(N)OC2=C(C(=O)CC(c3ccccc3Cl)C2)C1c1ccccc1Cl (stereo not shown) | 12.2%
102 | Cn1c(=N)n(CCCOc2ccccc2Cl)c2ccccc21 | 3.81%
103 | CCOc1cc(C)nn1-c1ccccc1 | 4.73%
